Laboratory results: PubChem BioAssay AID504706 (National Center for Advancing Translational Sciences (NCATS), 2011)
Screen size: about 320,000 compounds; about 200 (0.062%) were called active. Inconclusive results, whose numbers are uncertain, are shown with a selection of clear calls. The call rests on the fitted dose curve; in most records, active means well fitted activation curve with a large enough effect; inconclusive means small, poorly fitted or top-dose-only effect; inactive means no such curve, though single readings can be large or run the other way. Potencies of inconclusive entries are left out as doubtful fits.

Test: qHTS assay for re-activators of p53 using a Luc reporter; further: nearly all actives have a fitted effect of over 45% in size
Conditions: H1299 p53-A138V BP100-luciferase reporter, luminescence, 24 h; series mostly up to 92.2 µM
Procedure, shortened: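 p53-null H1299 cells stably carrying temperature-sensitive p53-A138V and a BP100-luciferase reporter were pinned with compounds (4-point, 1:5 series) and held 24 hrs at 37 deg C. Luminescence was read 10 min after detection reagent.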
Potency means the concentration at half of the fitted maximal effect; tags describe the fitted curve by direction and shape.

| SMILES | Potency |
| --- | --- |
| Cc1ccc(C(=O)Oc2cccc(NC(=O)c3ccccc3)c2)cc1C | inconclusive [activator, full curve, poor fit] |
| Cc1nc2nc(C)n(-c3ccccc3)c2s1 | inconclusive [activator, single point] |
| CCOc1ccc(NC(=O)CSc2nnc(CCNC(=O)c3ccc(OC)cc3)n2C)cc1 | inconclusive [activator, single point] |
| CCc1nc(NCC(C)C)c(C#N)c2c1COC(C)(C)C2 | inconclusive [activator, full curve, poor fit] |
| COc1ccc(NC(=O)c2cc3ccccc3o/c2=N\NS(=O)(=O)c2ccc(C)cc2)cc1 | inconclusive [activator, partial curve, poor fit] |
| CN(C(=O)CSc1ncnc2ccccc12)C1CCCCC1 | inconclusive [activator, partial curve, poor fit] |
| Cc1ccc(-n2cc(-c3ccccc3)c3c(N4CCN(C)CC4)ncnc32)cc1 | inactive |
| O=Cc1sc(=O)n(Cc2cccc(C(=O)O)c2)c1Cl | inactive |
| CCCCNC(=O)N(O)C1N(/N=C/c2ccccc2O)C(=S)SC1(C)C (stereo not drawn) | inconclusive [activator, full curve, poor fit] |
| C=CCNc1nnc(SCC(=O)N2CCCCC2)c2ccccc12 | inconclusive [activator, partial curve, poor fit] |
| Cc1ccc(C(=O)NC(=S)NNC(=O)c2cccc([N+](=O)[O-])c2)cc1 | inactive |
| Cc1ccccc1/C=C\c1nc2ccccc2c(=O)[nH]1 | inconclusive [activator, partial curve, poor fit] |
| S=C(NCCc1ccccc1)Nc1ccc(Cl)cc1 | inconclusive [activator, partial curve] |
| CCOC(=O)CSc1cccc2cccnc12 | inconclusive [activator, partial curve, poor fit] |
| Cc1nn(Cc2ccccc2)c(Cl)c1C(=O)OCc1nnc(-c2ccc(Cl)cc2)o1 | inconclusive [activator, single point] |
| O=C(CNC(=O)c1ccccc1F)Nc1ccc2c(c1)OCO2 | inconclusive [activator, partial curve, poor fit] |
| CCOC(=O)c1ccc(NC(=S)Nc2cccc(N)n2)cc1 | inconclusive [activator, partial curve, poor fit] |
| Cc1cccc(NC(=O)COC(=O)CSc2ccccc2)c1C | inconclusive [activator, single point] |
| COc1cccc(NC(=O)COc2ccc3c(c2)CCC3)c1 | inactive |
| Cc1cc(C(=O)COC(=O)c2ccc(O)cc2O)c(C)n1C(C)C | inconclusive [activator, full curve, poor fit] |
| CCN(CC)C(=O)c1cc(-c2ccccc2OC)on1 | inconclusive [activator, full curve, poor fit] |
| O=C(CCCC(=O)c1ccc(F)cc1)c1ccc(F)cc1 | inconclusive [activator, full curve, poor fit] |

| SMILES | Potency |
| --- | --- |
| CCC(C)(C)NC(=O)C(c1ccc(O)cc1)N(CCOC)C(=O)CCC(=O)Nc1nccs1 (stereo not drawn) | inactive |
| Cc1ccc(C(=O)CCC(=O)Nc2ncccc2C)cc1 | inconclusive [activator, partial curve, poor fit] |
| O=c1oc2ccc3ccccc3c2c2c1SC(C(F)(F)F)C2 (stereo not drawn) | inactive |
| CC(=O)c1cccc(N(C(=O)c2cnccn2)C(C(=O)NCc2ccccc2)c2ccco2)c1 (stereo not drawn) | inconclusive [activator, single point] |
| CN(C)/C=C1\N=C(c2ccc3c(c2)OCO3)OC1=O | inconclusive [activator, partial curve, poor fit] |
| COc1cc(C(N)=O)cc(Br)c1OCc1ccccc1 | inactive |
| CCN(CC)C(=N)/C(C#N)=N/Nc1ccccc1 | inactive |
| COc1cccc(-c2csc(N3CCN(Cc4ccccc4)CC3)n2)c1 | inconclusive [activator, partial curve, poor fit] |
| CCOC(=O)CN(C(=O)COc1nc(-c2ccccc2)cc(C)c1C#N)c1ccccc1 | inactive |
| CC(OC(=O)CCc1ccccc1)C(=O)Nc1ncc(Cl)cc1Cl (stereo not drawn) | inconclusive [activator, single point] |
| CN(c1ccc(C(=O)N2CCCCCC2)cc1)S(=O)(=O)c1ccccc1 | inconclusive [activator, partial curve, poor fit] |
| CC(/C=N/NC(=O)c1ccccc1F)=C\c1ccccc1 | inconclusive [activator, full curve, poor fit] |
| COc1ccc(-c2nc3ccccn3c2Cl)cc1 | inconclusive [activator, full curve, poor fit] |
| CC1=C(C(=O)O)N2C(=O)C(NC(=O)c3ccc(F)cc3)C2SC1 (stereo not drawn) | inconclusive [activator, single point] |
| CN1C(=O)CSC1=Nc1cccc(C(=O)O)c1 | inconclusive [activator, single point] |
| COc1ccc(C(=O)Nc2cccc(-c3ccc(N4CCOCC4)nn3)c2)cc1 | inconclusive [activator, full curve, poor fit] |
| COc1ccc(N2C(=O)c3ccc(C(=O)Nc4ccccc4OC)cc3C2=O)cc1 | inconclusive [activator, single point] |
| Cc1cc(/C=N/NC(=O)C(=O)NCc2ccccn2)c(C)n1-c1cccc(Br)c1 | inactive |
| Cc1ccc(NC(=O)CSc2ncccc2C(=O)Oc2cccc([N+](=O)[O-])c2)cc1Cl | inconclusive [activator, partial curve, poor fit] |
| O=C(Nc1nnc(C2=COCCO2)o1)c1cccc(F)c1 | inactive |
| O=C(N/N=C/C(Cl)=C\c1ccccc1)c1ccco1 | inconclusive [activator, full curve, poor fit] |
